# Measurements from the supplement of paper PMC3334620.
# Whole data set: some 33,000 sequences, median “E-score (-0.5 to 0.5)” near -0.053, cut for the highest 2% near 0.37. Some of the results follow.
# Target: Hap1 (UniProt P0CE41)
# Assay: PBM E-score (8-mer binding enrichment) (E-score (-0.5 to 0.5)); higher = stronger / more preferred TF binding; most listed sequences are background and not binding sites
# Conditions: protein concentration: 200 nM; construct: GST-DNA-binding domain
# Summary of the method: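 Yeast transcription factors, full-length or as DNA-binding domains, were expressed with a GST tag using PURExpress in vitro transcription/translation. At about 100-200 nM they were applied to universal all-10-mer Agilent arrays, double-stranded by primer extension on fresh or once-stripped slides. Fluorescent anti-GST detected bound protein, and masliner normalised the scans. E-scores for ungapped eight-base words, pooled with reverse complements, came from the Universal PBM Analysis Suite.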
# UniProt P0CE41, sequence (P0CE41 whole entry): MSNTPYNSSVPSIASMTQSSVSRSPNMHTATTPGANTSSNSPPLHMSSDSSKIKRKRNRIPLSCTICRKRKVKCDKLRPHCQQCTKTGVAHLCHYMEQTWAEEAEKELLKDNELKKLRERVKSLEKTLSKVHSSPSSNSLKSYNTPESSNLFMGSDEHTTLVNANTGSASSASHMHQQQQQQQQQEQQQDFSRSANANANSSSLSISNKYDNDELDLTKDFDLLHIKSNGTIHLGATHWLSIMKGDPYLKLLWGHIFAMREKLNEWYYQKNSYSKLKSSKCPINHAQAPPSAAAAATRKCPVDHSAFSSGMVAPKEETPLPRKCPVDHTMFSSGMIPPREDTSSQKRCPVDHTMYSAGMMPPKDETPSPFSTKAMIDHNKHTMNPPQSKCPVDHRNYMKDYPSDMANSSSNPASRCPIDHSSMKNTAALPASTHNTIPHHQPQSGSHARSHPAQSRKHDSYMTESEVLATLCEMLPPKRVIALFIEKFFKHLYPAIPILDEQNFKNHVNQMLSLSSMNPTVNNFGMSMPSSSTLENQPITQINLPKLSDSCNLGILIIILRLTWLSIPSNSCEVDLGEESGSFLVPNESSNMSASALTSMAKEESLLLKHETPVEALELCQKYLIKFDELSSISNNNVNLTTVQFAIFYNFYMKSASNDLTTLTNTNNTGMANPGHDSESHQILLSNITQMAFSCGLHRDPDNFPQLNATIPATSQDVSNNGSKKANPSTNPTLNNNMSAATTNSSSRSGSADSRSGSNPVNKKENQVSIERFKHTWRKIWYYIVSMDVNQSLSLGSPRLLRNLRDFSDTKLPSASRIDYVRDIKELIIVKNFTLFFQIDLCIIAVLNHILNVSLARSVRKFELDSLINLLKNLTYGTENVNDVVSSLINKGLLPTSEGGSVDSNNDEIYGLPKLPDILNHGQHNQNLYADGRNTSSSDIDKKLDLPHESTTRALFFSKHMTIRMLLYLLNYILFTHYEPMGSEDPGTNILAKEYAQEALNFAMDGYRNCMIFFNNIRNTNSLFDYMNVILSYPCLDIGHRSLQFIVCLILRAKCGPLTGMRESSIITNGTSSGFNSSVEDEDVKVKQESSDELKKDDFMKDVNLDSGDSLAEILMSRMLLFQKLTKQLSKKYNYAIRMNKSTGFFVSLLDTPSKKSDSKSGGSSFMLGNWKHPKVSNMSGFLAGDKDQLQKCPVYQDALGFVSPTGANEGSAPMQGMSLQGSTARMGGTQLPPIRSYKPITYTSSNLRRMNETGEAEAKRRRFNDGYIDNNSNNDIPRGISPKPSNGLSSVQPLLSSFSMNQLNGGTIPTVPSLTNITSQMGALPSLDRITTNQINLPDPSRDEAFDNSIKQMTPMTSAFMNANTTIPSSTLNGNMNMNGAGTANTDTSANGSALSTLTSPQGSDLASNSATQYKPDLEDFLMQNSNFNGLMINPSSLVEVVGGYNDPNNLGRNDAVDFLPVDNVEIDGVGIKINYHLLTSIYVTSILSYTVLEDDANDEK
row,Sequence,PBM E-score
1,GAAAATTC,0.15
2,TCCTCGAA,-0.188
3,ATCCGCAC,0.21
4,CACAATCA,-0.069
5,GGATACAC,0.132
6,AGACGCAT,0.00478
7,CCATAAAG,-0.12
8,ATCTTGCC,0.0264
9,GAACCGCC,0.0491
10,TCCCCGGA,0.377
11,CTAGTTTC,0.0722
12,CGTTCGCC,0.189
13,CAGGGGAA,-0.136
14,CGTAAGGC,-0.143
15,AAGTCTTA,-0.172
16,GTAACAAC,-0.1
17,GCTAACAA,-0.165
18,GGCGTGCA,0.00368
19,GTGCATGA,-0.177
20,ACCATAGA,-0.102
21,CTCATCGC,-0.0114
22,CGTCGATC,0.00791
23,CTAACAAA,-0.302
24,TACACACA,-0.211
25,AACCAGTA,0.0156

row,Sequence,PBM E-score
1,AAACTGAT,-0.146
2,CACACCTG,-0.192
3,ATAATGAG,-0.148
4,GCCTACCA,-0.193
5,AGGCACGG,0.135
6,CTCAGTTC,-0.241
7,GCATAGTA,-0.0876
8,AAGACGTG,-0.0656
9,AGATTGAT,-0.121
10,GCCGTCTA,0.123
11,CATGTTGA,0.0709
12,CCATGCTA,-0.201
13,ATCTGTCG,0.138
14,TCTTCAAA,-0.0563
15,ATCCCTTA,0.00474
16,GACGTTAC,-0.0145
17,GTCTGGAA,-0.27
18,AAGGAGCG,-0.136
19,AGGGTACC,-0.202
20,GCGACATA,-0.153
21,AATTCACC,0.129
22,GATATCCC,0.291
23,AAGATGGC,-0.0374
24,ATGATCGA,-0.00064
25,ACGGATCC,0.283

row,Sequence,PBM E-score
1,GATATGCA,0.0359
2,CAATGTGC,-0.123
3,TACCCTAA,-0.137
4,GTGCAACA,-0.198
5,GTGTGATA,-0.0571
6,AGGTTTAT,0.126
7,CGATGTTA,-0.0124
8,CAACTTAA,-0.195
9,CCTGTGCG,-0.0389
10,AGTAGAAA,0.0186
11,CACTTACC,0.123
12,CGGGGAAA,0.349
13,TGCCATAA,-0.0654
14,GAAGTAAC,0.192
15,CTCAGGTC,-0.0727
16,CTCAACCC,0.052
17,GCCACCAC,-0.15
18,CACTTGCC,0.00485
19,CATGACCC,-0.0966
20,ATTTATGG,-0.0655
21,GGAACAGA,-0.0465
22,CTGCCTAA,-0.257
23,AAGCGTGC,-0.0977
24,TCTTTGCA,-0.204
25,CATGTAGC,-0.121

row,Sequence,PBM E-score
1,CCGCAGAA,0.207
2,ATGACCCG,0.0877
3,GCATACGA,-0.182
4,CGTTTTCC,0.0123
5,CGCTTTCA,0.0753
6,GACATGAA,-0.092
7,CGCGCACG,0.177
8,CGTCTGTC,-0.118
9,CTACAAGA,-0.118
10,AATACTCG,-0.038
11,CAGCTCCG,0.299
12,CTCTAACC,-0.00256
13,AACTATAA,0.0884
14,TAAGCCTA,-0.0219
15,CTTCTAAC,-0.151
16,CGTAGCAG,-0.104
17,GGACTTCA,0.136
18,ACTTGGCA,-0.229
19,CGACGCAC,0.00232
20,GATGGACC,0.107
21,AGCCTATG,-0.207
22,GTTCTCAA,-0.101
23,ACTACAAG,-0.0389
24,ACTTCGCG,0.138
25,TAAGTTGA,-0.273

row,Sequence,PBM E-score
1,CCCAGAGC,-0.267
2,GGCATACA,-0.0392
3,ACAGTCAC,-0.256
4,ACTTCCCT,-0.0608
5,CAGGCGTA,-0.278
6,GAGTGCCC,-0.0131
7,GGTTCACA,-0.141
8,AAGGTATA,-0.177
9,ATCCGCGA,0.196
10,ACCAATGG,-0.0537
11,TAAGCGCA,-0.229
12,CACCCACC,-0.00045
13,CCCCAGAA,-0.138
14,AAGGAGTA,-0.0697
15,CCTCGAAA,-0.208
16,CGACGTGC,0.132
17,ATCGTCTA,-0.227
18,CGAACTTA,0.141
19,AATTGTCG,0.0432
20,TATGGCCA,-0.123
21,AGTCGACA,-0.118
22,CTTAACTC,0.233
23,GGCGATGA,0.19
24,AGCCCGAG,0.208
25,AGAGCTCT,-0.0527

row,Sequence,PBM E-score
1,CGGCCAGC,0.188
2,ACCAGCAC,-0.289
3,CCAAGCCG,0.0286
4,AGTCATGG,-0.0964
5,ACTACCAG,-0.122
6,CGTGTGGC,-0.137
7,CTCACACC,-0.15
8,AGAGAATG,-0.296
9,AATAAAGT,0.019
10,TCTATCAA,-0.323
11,CCCTGCTA,-0.236
12,GCTATGCC,-0.0116
13,ATCGCCAA,-0.0744
14,ACCATGCG,-0.0491
15,GGGTCGCA,0.0245
16,CATTGGTA,0.0746
17,ATGTCCTC,-0.175
18,GCTCTTGA,-0.0899
19,CGCCTATC,0.0376
20,ACGACTAG,-0.232
21,ACGGGGCG,0.116
22,CATGGCGC,0.0452
23,CACGACGC,-0.0711
24,CGCCCGCC,0.229
25,AGATTTGC,-0.0545

row,Sequence,PBM E-score
1,ATCCATTA,0.0158
2,CGCATCCG,0.248
3,AACGCATG,-0.125
4,ATACATCG,0.131
5,AGTGCAGA,0.045
6,AACAAGTT,-0.0535
7,ACTCCTCA,-0.294
8,AGGTCGTA,-0.245
9,AGTACAGC,-0.0613
10,AAAACCGC,0.109
11,AAACTCCA,-0.0578
12,ATACAATC,-0.0394
13,TAACTACA,-0.0514
14,CAAAACAC,-0.0221
15,CACCCTCC,0.175
16,CGATCCGA,0.352
17,CTGCGCAA,0.0295
18,CTGTATGA,-0.0248
19,ACGTAGAG,-0.227
20,AAACCTTC,0.00763
21,AACGAGCT,-0.15
22,AGTGGAAG,0.0152
23,ATGAACTG,0.0129
24,CCCGACTC,0.195
25,CCAGTAGC,0.113

row,Sequence,PBM E-score
1,GATTGTTA,0.0736
2,CCTCAGCG,0.0416
3,GATGGCCA,-0.201
4,ACTCCCAC,-0.0353
5,GTGCGTTA,0.00602
6,TGATACAA,-0.0823
7,ACCATTCT,-0.123
8,CACCCTGA,-0.222
9,GACAGGAA,0.0575
10,AGTATCCA,-0.0363
11,ATCAAGAA,-0.163
12,AAGATGAA,-0.048
13,ACCCCTAT,-0.0953
14,GTCAACGA,-0.239
15,CGACCTGC,0.0171
16,CAGTGTGA,-0.272
17,CGATGTGC,0.161
18,TAACGCCA,-0.103
19,AGCTACTG,-0.00261
20,TGATTACA,-0.187
21,ATGCCTAG,-0.0474
22,CAACCTCC,0.143
23,ACCCATGC,-0.249
24,TCATCAGA,-0.134
25,AGACACCG,0.177

row,Sequence,PBM E-score
1,GGTGGTAC,0.00683
2,TATTTCGA,-0.0364
3,AACCAACG,-0.104
4,GATGGAGA,-0.0257
5,CTCAGCTC,0.0386
6,CCTCCCTA,-0.229
7,GAGGAAGC,-0.0296
8,ATGACAGC,-0.296
9,CTCTACCC,-0.22
10,ACGGGGCC,0.186
11,CTTTAAGC,0.0622
12,CTCGATCC,-0.0215
13,CGACCAAC,-0.0313
14,AATACTAG,-0.0844
15,AAGATCTC,-0.14
16,GGGAACAC,0.0601
17,CACACGTC,-0.0573
18,AAGTCACT,-0.23
19,ACTCCCGG,0.378
